Laboratory results: US20080311122A1, “Antagonists of Hmgb1 and/or Rage and Methods of Use Thereof” (Medimmune, LLC, priority 2005, published 2008)

Assay: Isoelectric focusing gel electrophoresis
Format: physicochemical
Protocol: Isoelectric Focusing Gel Electrophoresis: Isoelectric points were determined using a Pharmacia Biotech Multiphor 2 electrophoresis system with a multi temp 3 refrigerated bath recirculation unit and an EPS 3501 XL power supply. Pre-cast ampholine gels (Amersham Biosciences, pI range 2.5-10) were loaded with 5 μg of protein. Broad range pI marker standards (Amersham, pI range 3-10, 8 μL) were used to determine relative pI for the Mabs. Electrophoresis was performed at 1500 V, 50 mA for 105 minutes. The gel was fixed using a Sigma fixing solution (5×) diluted with purified water to 1×. Staining was performed overnight at room temperature using Simply Blue stain (Invitrogen). Destaining was carried out with a solution that consisted of 25% ethanol, 8% acetic acid and 67% purified water. Isoelectric points were determined using a Bio-Rad Densitometer relative to calibration curves of the standards.

B1: S2: human anti-HMG1 antibody, ATCC PTA-6142; VL/VH aa SEQ ID NO: 5/7 (antibody, listed as Homo sapiens, V domains shown)
VH: EVQLLESGGGLVQPGGSLRLSCAASGFTFSGYMMVWVRQAPGKGLEWVSRISPSGGQTGYADSVKGRFTISRDNSKNTLYLQMNSLRAEDTAVYYCAREEGGSYGAFDIWGQGTMVTVSS
VL: [gap - about 100 residues]FGQGTKVEIK
PI: 8.53
